Sequences with one replicate were seen in a single cluster, so their values are uncertain.

The values below come from the supplement of paper PMC10126150.

This data set has as its system ATP. Briefly: switch fluorescence ratio, 500 uM ATP over buffer (Cy3 cluster intensity, sum of 5 cycles each) (fold (ratio)); higher = stronger signal-on switching upon ATP binding; sequences stand for … in TCGTCGGCAGCGTCAGATGTGTATAAGAGACAGTTTTTTTTTTTTTTTTTTTTTTTTT…TC. The following applies: aptamer strand: ATP DNA aptamer (quencher-CACCTGGGGGAGTATTGCGGAGGAAGG + anchor), 100 nM annealed; ATP concentration: 500 uM; one replicate. The method in brief:
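Imaging in selection buffer was followed by imaging after 15 min with 500 uM ATP at 22 °C, for Cy3-labelled switching-strand clusters annealed to 100 nM quencher-labelled ATP aptamer on a modified Illumina MiSeq flow-cell. Five of these buffer/ATP cycles ran, separated by NaOH stripping and re-annealing. The fluorescence ratio per cluster is summed target-cycle over summed buffer-cycle Cy3 intensity, averaged per switch-domain sequence; clusters outside 100-1000 RFU were removed.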
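Also: ATP exposure 15 min at 22 °C before imaging.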

Take TTCCAAGCGG: the switch fluorescence ratio was 1.19.

In the case of TATTAGTCCT, the switch fluorescence ratio amounted to 0.999.

For the sequence TAAAGGGCG, the switch fluorescence ratio was 1.01. To ATGCAATTTA belongs 1.04. The value for TACGGGTGGT was 0.988; that for CGCAATGTTG was 1.63. For the sequence GTTTGGTCAA, the switch fluorescence ratio was determined as 1.23. With GCCATTCGCA, the switch fluorescence ratio was 1.05. The value for CTTCTGCGTC was 1.05; that for ACGTTGGGTT was 0.979; that for CGACTGATGG was 0.981. To TGATTAGAAC belongs 1.04. To ATATCCCCCG belongs 1.18; to TACGACGAA, 1.22; to ATACCGGAAA, 1.04. TCACTAAAGG: the switch fluorescence ratio amounted to 1.01. For the sequence TCAAGCACCA, the switch fluorescence ratio was 1.21. To TGTTACTTGC belongs 1.02; to GAGGTCACGA, 0.983. Consider GTGGACTTTT, for which the switch fluorescence ratio worked out at 1.02.

As to TGCCCTTGGG, the switch fluorescence ratio came to 1.31. Consider TGAGAAAGCA, for which the switch fluorescence ratio was 0.988. To GCGCTTGTGT belongs 0.963; to ACGTGGGTAC, 1.09.

Consider CACGTATTGT, for which the switch fluorescence ratio amounted to 1.2.

In the case of AGTTGTCTTT, the switch fluorescence ratio came out at 0.882. On to GCCGGAACTC, for which the switch fluorescence ratio was found to be 1.02. With GTGTGTCGGG, the switch fluorescence ratio is 0.993.

As to ACCATGCCCT, the switch fluorescence ratio stood at 0.981. For ATCGGGCCTT, the switch fluorescence ratio was found to be 0.975. For CACTAACTCG, the switch fluorescence ratio was 1.1. CGTTCGCACG: the switch fluorescence ratio was 1.11. In the case of TTGAATCACT, the switch fluorescence ratio came out at 1.02. Take CTCGAAAAAG: the switch fluorescence ratio came out at 0.968.

In the case of GACGCCCGAG, the switch fluorescence ratio was determined as 1.02.

With AATTTGAGAT, the switch fluorescence ratio came to 0.987. To TTATCCCGGC belongs 0.939; to ATCGACATGT, 1.01; to CGAGAACAGT, 0.967. To AGGCTTTACG belongs 0.966; to TCTACGGATA, 1.37; to TCAGGTCTCG, 0.999. The value for GGAAGCGTT was 0.998; that for GCGGACGCCA was 0.986; that for CGGGTCAGGC was 0.999. Regarding GATACCCTCA, the switch fluorescence ratio is 1.07. To GAACGATGCT belongs 1.01.

GAGGGATTG: the switch fluorescence ratio was 0.943. As for AACTAGATTT, the switch fluorescence ratio was 0.98. To CCGAGGGGCT belongs 1.07; to GGGCTAACGT, 1.04. As for GACTGAGGGC, the switch fluorescence ratio is 0.976. Consider GATTAACTAG, for which the switch fluorescence ratio worked out at 0.965. To GTTGCGATG belongs 1.02; to TGCCTTGGGA, 0.969; to TTGCATGACA, 1.02. The value for ACTTTCTGCA was 1.06.

Consider ATACATGATC, for which the switch fluorescence ratio is 1.02. To CACGATAG belongs 1.03; to TAAGCATCAT, 0.988. With TAGAAGGCGA, the switch fluorescence ratio was 1.01. The value for TGCGTTGTAC was 1.48; that for ATCGGTAGG was 1.02; that for GGAATGACCA was 1.

With AAGAAGGGTT, the switch fluorescence ratio was found to be 1.01.

As for ACTTATAGCT, the switch fluorescence ratio was 1.03. To TGCAGCGAAC belongs 4.29.
